# Measurements published in PubChem BioAssay AID1030 (National Center for Advancing Translational Sciences (NCATS), 2008).
# Several values for one entry are separate records, joined by “and”; a condition that tells them apart may be missing. Equal values may be shown once. About 16,000 (7.3%) of roughly 220,000 compounds were called active. This list was built around the results that the source calls inconclusive (neither active nor inactive); the mix of calls is not that of the screen. Calls follow the shape of the dose curve; as a rule, active = well fitted inhibition curve with a large enough effect (not every such curve was filed as active); inconclusive = small, poorly fitted or top-dose-only effect, or another doubt; inactive = no such curve, though single readings can be large or run the other way. Potencies beside an inconclusive call are fits to weak or partial responses and may not hold up.
# Biological target: Aldehyde dehydrogenase 1A1 (Homo sapiens) (UniProt P00352)
# Experiment: qHTS Assay for Inhibitors of Aldehyde Dehydrogenase 1 (ALDH1A1)
# Settings: Purified ALDH1A1, NADH fluorescence, propionaldehyde substrate; series mostly up to 75.3 µM
# Potency is read from the fitted curve at half-maximal effect; tags tell the direction and shape of the fitted curve.
# Sequence of UniProt P00352 (P00352 whole entry, looked up): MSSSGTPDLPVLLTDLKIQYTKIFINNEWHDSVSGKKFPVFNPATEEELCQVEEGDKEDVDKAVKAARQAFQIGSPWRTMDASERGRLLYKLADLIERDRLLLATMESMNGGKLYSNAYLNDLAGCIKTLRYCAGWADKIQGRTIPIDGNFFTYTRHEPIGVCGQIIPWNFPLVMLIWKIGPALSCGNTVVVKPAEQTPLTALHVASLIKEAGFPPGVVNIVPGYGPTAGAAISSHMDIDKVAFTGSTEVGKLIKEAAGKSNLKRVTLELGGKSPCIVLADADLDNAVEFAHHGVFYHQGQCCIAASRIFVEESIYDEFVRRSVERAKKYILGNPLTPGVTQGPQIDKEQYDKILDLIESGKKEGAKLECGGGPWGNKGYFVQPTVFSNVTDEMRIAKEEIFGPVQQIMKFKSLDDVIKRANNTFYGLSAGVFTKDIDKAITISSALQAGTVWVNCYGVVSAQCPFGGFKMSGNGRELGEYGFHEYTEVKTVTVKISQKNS
row,SMILES,Potency
1,CC(=O)N1CCN(c2ccc(NC(=O)c3ccccc3Br)cc2Cl)CC1,"inconclusive: 44.7 µM [inhibitor, single point]"
2,Cc1nc(N)sc1-c1csc(Nc2ncccn2)n1,"inconclusive: 25.1 µM [inhibitor, single point]"
3,CN(C)/C=N/c1ncc(C(=O)c2ccc(Cl)cc2Cl)s1,"inconclusive: 39.8 µM [inhibitor, single point]"
4,COc1cccc2sc(Nc3nc(-c4ccccn4)cs3)nc12,inactive
5,C=CCNC(=S)NNC(=O)C(CCCC)CC(C)(C)O (centres undefined),"inconclusive: 39.8 µM [inhibitor, single point]"
6,CN=C1C=C/C(=N/N=c2\ccn(O)cc2C)C=C1C,inactive
7,COC(=O)c1ccccc1NC(=O)C(C)NS(=O)(=O)c1ccc(OC)cc1 (centres undefined),"inconclusive: 22.4 µM [inhibitor, partial curve]"
8,N#C/C(=C(/O)C(Cl)c1ccccc1)c1nc2ccccc2s1 (centres undefined),"inconclusive: 39.8 µM [inhibitor, single point]"
9,CCn1cc(C(=O)N2CCN(c3ccc(OC)cc3)CC2)c(=O)c2cc(S(=O)(=O)N3CCCCC3)ccc21,active: 11.2 µM
10,COCCn1c(=S)[nH]c2ccc(N(C)C)cc2c1=O,"inconclusive: 15.8 µM [inhibitor, partial curve]"
11,CC(C)C(=O)N1CCN(c2ccc(NC(=O)c3ccc([N+](=O)[O-])o3)cc2Cl)CC1,"inconclusive: 3.55 µM [inhibitor, single point]"
12,O=C(NCCN1CCOCC1)c1c[nH]c2ccc(S(=O)(=O)N3CCOCC3)cc2c1=O,"inconclusive: 31.6 µM [inhibitor, single point]"
13,COC(=O)c1c(NC(=O)c2ccc(C)cc2)sc(Cc2ccccc2)c1C,inactive
14,Cc1cc(SCC(=O)Nc2cccc(S(=O)(=O)NC3=NCCCCC3)c2)c(C)cc1Br,"inconclusive: 28.2 µM [inhibitor, partial curve]"
15,O=C(NCCCN1CCOCC1)c1ccc(-n2c(=O)c(=O)[nH]c3ccccc32)cc1,inactive
16,CCCCn1c(=O)[nH]c2nc3cc(N)ccc3nc2c1=O,"inconclusive: 15.8 µM [inhibitor, partial curve]"
17,Cc1cc(C)cc(N=Cc2[nH]c3ccc(Br)c(Cl)c3c2O)c1,active: 7.94 µM
18,CCOC(=O)c1c(C)n(C)c2ccc(OC)c(NC(=O)CN3CCN(C4CCCCC4)CC3)c12,"inconclusive: 39.8 µM [inhibitor, single point]"
19,Nc1nc(SCC(=O)N2CCc3ccccc3C2)[nH]c(=O)c1-c1ccccc1,active: 22.4 µM
20,CCCCCCN(CCCCCC)C(=O)Cc1c(-c2ccc(F)cc2)[nH]c2ccccc12,"inconclusive: 35.5 µM [inhibitor, single point] and inconclusive: 35.5 µM [inhibitor, partial curve]"
21,Cn1c(Cn2c(=O)sc3ccccc32)nnc1SCC(=O)Nc1ccc(Cl)cc1,"inconclusive: 35.5 µM [inhibitor, single point]"
22,Fc1ccc(CN2CCN(C(=S)NCCc3ccccc3)CC2)c(Cl)c1,"inconclusive: 35.5 µM [inhibitor, single point]"

row,SMILES,Potency
1,O=C(/C=C/c1ccco1)N1CCN(S(=O)(=O)c2ccc(F)c(F)c2F)CC1,"inconclusive: 39.8 µM [inhibitor, single point]"
2,Cc1ccc(SCC2(O)CCN(S(=O)(=O)c3ccc(Cl)cc3)CC2)cc1,"inconclusive: 10 µM [inhibitor, partial curve]"
3,CCN(CC)CCCN1C(=O)C(O)=C(C(=O)c2ccc(C)o2)C1c1cccs1 (centres undefined),"inconclusive: 39.8 µM [inhibitor, single point]"
4,CCOc1ccc(-c2nc(CSCC(=O)NC3CCCc4ccccc43)c(C)o2)cc1 (centres undefined),"inconclusive: 31.6 µM [inhibitor, single point]"
5,Clc1ccccc1-c1nn2c(Cn3cnc4ccccc43)nnc2s1,active: 20 µM
6,O=c1nc(/C=C/c2cc([N+](=O)[O-])ccc2Cl)cc(C(F)(F)F)[nH]1,"inconclusive: 1 µM [inhibitor, full curve, poor fit]"
7,COc1ccc(CCNC(=O)C(=O)Nc2ccc3c(c2)OCO3)cc1OC,inactive
8,CC(C)c1c(Cl)c(O)c(-c2ccccc2)c(=O)n1-c1ccc(F)cc1,"inconclusive: 44.7 µM [inhibitor, single point]"
9,O=C(CSCc1ccc([N+](=O)[O-])cc1)Nc1ccc(S(=O)(=O)N2CCCCCC2)cc1,"inconclusive: 39.8 µM [inhibitor, single point]"
10,COc1cc(-c2cc(C(=O)OCC(=O)Nc3ccc4c(c3)OCO4)c3ccccc3n2)cc(OC)c1OC,"inconclusive: 25.1 µM [inhibitor, partial curve]"
11,Nc1nc(N2CCN(c3ccc(F)cc3)CC2)n[nH]1,inactive
12,CCOc1ccccc1C1CC(=O)NC2=C1C(=O)CC(C)(C)C2 (centres undefined),inactive
13,O=C(/C=C/c1ccccc1)NCCSCc1ccccc1,active: 1 µM
14,Cc1ccc(C(=O)N2CCCC(c3ccc(Cl)cc3)=N2)cc1,active: 12.6 µM
15,CCOc1ccccc1OCCNC1CCCC1,"inconclusive: 25.1 µM [inhibitor, single point]"
16,Cc1noc(C)c1C(=O)N1CCC2(CCCN(Cc3nccs3)C2)CC1,inactive
17,CCN1CCN(c2c(Cl)cccc2NC(=O)c2ccc([N+](=O)[O-])cc2)CC1,inactive
18,CC(C)NS(=O)(=O)c1ccc(NC(=S)NC(=O)c2ccc(-c3ccccc3)cc2)cc1,active: 11.2 µM
19,O=C(NNC(=S)NC(=O)c1ccccc1[N+](=O)[O-])c1ccccc1,inactive
20,Cc1ccccc1NC(=O)CC1SC(=NC2CCCCC2)NC1=O (centres undefined),"inconclusive: 39.8 µM [inhibitor, single point]"
21,CN(C)c1ccc(N=Nc2ccccc2C(=O)OCC(=O)NCC2CCCCC2)cc1,inactive
22,COc1ccc(-c2cc(C(F)F)n3ncc(C(=O)Nc4cc(C)on4)c3n2)cc1,"inconclusive: 31.6 µM [inhibitor, partial curve]"
